Measurements published in PubChem BioAssay AID504832 (National Center for Advancing Translational Sciences (NCATS), 2011).
The whole screen tested about 310,000 compounds, of which about 18,000 (5.8%) were called active. The inconclusive results got no clear call from the source; some entries with a clear call stand among them for comparison. The call rests on the fitted dose curve; in most records, active means well fitted inhibition curve with a large enough effect; inconclusive means small, poorly fitted or top-dose-only effect, or another doubt; inactive means no such curve, though single readings can be large or run the other way. No potency is given beside an inconclusive call; the fits are too rough.

Experiment: Primary qHTS for delayed death inhibitors of the malarial parasite plastid, 48 hour incubation
Settings: P. falciparum luciferase growth in erythrocytes; series mostly up to 28.7 µM; activity change, negative = inhibition: at the top concentration
Procedure, shortened: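 Growth was read as firefly luciferase luminescence after a 48 h, 37 C, 5% CO2 exposure of compounds to reporter-bearing P. falciparum cultures (0.1% parasitemia, 2% hematocrit final) in Albumax-supplemented RPMI 1640.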
On the % scale 0 is the no-effect control and ±100 the full control effect; potency means the concentration at half of the fitted maximal effect; tags describe the fitted curve by direction and shape.

SMILES | Potency | activity change, negative = inhibition
Cc1ccc(/C=C/C(=O)Nc2cc(S(N)(=O)=O)ccc2O)cc1 | inconclusive [inhibitor, single point] | –
N=c1n(CCN2CCCCC2)c2ccccc2n1CC(=O)c1ccc(Cl)c(Cl)c1 | active: 1.47 µM | –
O=C(O)C1C2C=CC(C2)C1C(=O)NCc1cccs1 (configuration not stated) | – | inactive: -1.37%
COc1ccc(-n2c(O)c(/C=N/NS(=O)(=O)c3ccc(C)c([N+](=O)[O-])c3)c3ccccc3c2=O)cc1OC | inconclusive [inhibitor, single point] | –
CCOC(=O)C(=O)Nc1nc(-c2ccccc2)c(-c2ccccc2)o1 | – | inactive: -3.58%
CCN(c1ccccc1)S(=O)(=O)c1ccc(C(=O)Nc2ncccc2C)cc1 | inconclusive [inhibitor, single point] | –
CC(C)CN(C(=O)CCCOc1ccc(Cl)cc1Cl)c1c(N)n(Cc2ccccc2)c(=O)[nH]c1=O | active: 11.7 µM | –
COc1ccc(CCNC(=O)[C@@H](NC(=O)N2CCn3c2nc2ccccc23)C(C)C)cc1OC | inconclusive [inhibitor, single point] | –
O=C(c1ccc(CNc2c(N3CCOCC3)c(=O)c2=O)cc1)N1CC=C(c2ccccc2)CC1 | inconclusive [inhibitor, partial curve] | –
O=C(CSc1nc(=O)n2ccccc2n1)N1CCC(Cc2ccccc2)CC1 | inconclusive [inhibitor, partial curve] | –
COc1ccc(S(=O)(=O)N2CCC(C(=O)NCC(c3cccs3)N(C)C)CC2)cc1 (configuration not stated) | inconclusive [inhibitor, full curve, poor fit] | –
CC(=O)Nc1ccc(S(=O)(=O)c2ccc(C)cc2)cc1 | inconclusive [inhibitor, partial curve, poor fit] | –
COc1ccc(CC(=O)Nc2c3c(nn2C(C)(C)C)CS(=O)(=O)C3)cc1OC | – | inactive: 28.7%
CC1=C(C(=O)Nc2cc(-c3cccc(F)c3)[nH]n2)C2(CCCCC2)OC1=O | inconclusive [inhibitor, single point] | –
Cc1cccc(C)c1NC(=S)N1CCC(c2ccccc2)C1 (configuration not stated) | – | inactive: 55.4%
COc1cc(CNCCc2ccccc2F)ccc1OCC(=O)N1CCCCC1 | – | inactive: -27.2%
O=C(Nc1c(Cl)ccc2nsnc12)c1ccc([N+](=O)[O-])o1 | inconclusive [inhibitor, partial curve, poor fit] | –
CC(=O)c1ccc(S(=O)(=O)N(C)CCCC(=O)N(C)Cc2ccccc2F)cc1 | inconclusive [inhibitor, partial curve, poor fit] | –
CCCC(=O)Nc1nc(C)c(-c2csc(Nc3ccc(Cl)cc3)n2)s1 | active: 0.828 µM | –
OC(Cn1cncn1)c1ccc(Cl)cc1Cl (configuration not stated) | – | inactive: 6.41%
Cc1ccc(S(=O)(=O)c2nnn3c2nc(N2CCN(c4ccccn4)CC2)c2ccccc23)cc1C | inconclusive [inhibitor, full curve] | –
O=C(NCCCn1ccnc1)Nc1ccc(Cl)c(Cl)c1 | active: 11.7 µM | –
COc1cc(-c2csc(NC3CCCCC3)n2)cc(OC)c1OC | active: 11.7 µM | –
O=C(O)[C@@H](S)[C@H](S)C(=O)O | active: 4.26 µM | –

SMILES | Potency | activity change, negative = inhibition
COc1ccc(C)cc1-n1nnnc1SCC1CCCCO1 (configuration not stated) | inconclusive [inhibitor, single point] | –
O=C(Nc1ccc(Br)cc1)c1cc(Br)c(Br)s1 | inconclusive [inhibitor, single point] | –
Cc1cc(C)c(C(=O)OCc2csc(CC(=O)Nc3ccccc3C)n2)c(C)c1 | inconclusive [inhibitor, single point] | –
CNC(=S)N1CCc2sccc2C1C (configuration not stated) | inconclusive [inhibitor, single point] | –
CCNC(=S)N1CCc2cc(OC)c(OC)cc2C1COc1ccc(F)cc1 (configuration not stated) | inconclusive [inhibitor, single point] | –
Cc1nnc(NC(=O)CSc2ccccc2N)s1 | – | inactive: 26.7%
Cc1ccc(CSCCNC(=O)CN(c2ccccc2)S(C)(=O)=O)cc1 | – | inactive: 5.94%
COc1cccc(C2C(=O)c3ccccc3C2=O)c1 | – | inactive: -1.94%
CC(NC(=O)c1ccc2ccccc2n1)c1ccccc1 (configuration not stated) | inconclusive [inhibitor, partial curve] | –
CCOc1ccc(-n2nnc3c(=O)n(CC(=O)NCc4ccco4)cnc32)cc1 | – | inactive: 21.2%
O=[N+]([O-])c1ccc(N/N=C\c2cccn2-c2ccccc2)nc1 | inconclusive [inhibitor, partial curve, poor fit] | –
CCCc1cc(NCCCN(C)C)n2c(nc3ccccc32)c1C#N | inconclusive [inhibitor, single point] | –
CSCCC(NC(=O)C1CCCC1)c1nnc2ccccn12 (configuration not stated) | – | inactive: 11.4%
O=C1CN(C(=O)COc2ccc(Cl)cc2Cl)c2ccccc2N1 | inconclusive [inhibitor, partial curve, poor fit] | –
O=C(Cc1ccc(S(=O)(=O)N2CCOCC2)s1)NC1CCCCC1 | inconclusive [inhibitor, partial curve] | –
OCc1c[nH]c2ccccc12 | inconclusive [inhibitor, single point] | –
CCCC[C@H](CC(=O)c1ccccc1)[C@@H](OC(C)=O)C(=O)Oc1c(C(C)C)cccc1C(C)C | inconclusive [inhibitor, full curve] | –
CCCCOc1ccc(C(=O)NCCOc2cccc(OC)c2)cc1 | – | inactive: 17.5%
Cc1c(CCOC(=O)C23CC4CC(CC(C4)C2)C3)sc[n+]1CC#N | inconclusive [inhibitor, single point] | –
CCNc1nc(NC(C)C)nc(N(C#N)CCOc2ccc(Cl)cc2Cl)n1 | inconclusive [inhibitor, partial curve] | –
COc1ccc(OC)c(NC(=O)/C=C/c2ccccc2[N+](=O)[O-])c1 | – | inactive: -6.92%
Cc1nc(N2CCN(Cc3ccccc3)CC2)nc2c1C(=O)CC(c1ccco1)C2 (configuration not stated) | inconclusive [inhibitor, single point] | –
CCOc1ccc(OCc2ccc(C(=O)O)o2)cc1 | – | inactive: 182%
CC(C(=O)c1ccccc1)[n+]1cccc(C(N)=O)c1 (configuration not stated) | – | inactive: 43.3%

SMILES | Potency | activity change, negative = inhibition
CCOC(=O)C1=NN(C(=O)Nc2ccc(OC)cc2)C2C(=O)N(c3cccc(C(F)(F)F)c3)C(=O)C12 (configuration not stated) | – | inactive: -2.87%
COc1ccc(C2CCCN2C(=S)Nc2ccccc2C)cc1OC (configuration not stated) | active: 9.28 µM | –
COc1ccc(-c2ccc(=O)n(CC(=O)NC3CCc4ccccc43)n2)cc1OC (configuration not stated) | inconclusive [inhibitor, partial curve] | –
O=C(Cn1c(-c2ccccn2)nc2ccccc21)NCCN1CCOCC1 | – | inactive: 13.8%
CCC[C@H](CN[C@@H](CNC)[C@H](C)CC)NCCc1cc(C(F)(F)F)cc(C(F)(F)F)c1 | active: 4.15 µM | –
O=C(Nc1cccc(S(=O)(=O)NC2=NCCCCC2)c1)c1cc(-c2ccco2)nc2ccccc12 | inconclusive [inhibitor, partial curve] | –
CCNc1cc(N2CCN(S(=O)(=O)c3ccc4c(c3)CCCC4)CC2)ccc1[N+](=O)[O-] | inconclusive [inhibitor, partial curve, poor fit] | –
O=c1ccnc(NCCc2ccccc2)[nH]1 | – | inactive: 22.2%
C/C(=N\NC(=S)Nc1cccc(C)c1)c1ccccc1 | inconclusive [inhibitor, full curve, poor fit] | –
CC1CC(CCN)(c2ccccc2)C(C)CN1C (configuration not stated) | inconclusive [inhibitor, partial curve, poor fit] | –
Cn1ccc2cc(-c3ccc4ncnc(NCc5cccs5)c4c3)ccc21 | active: 2.94 µM | –
CC1(CC(=O)N/N=C/c2cc([N+](=O)[O-])c(O)cc2O)OCCO1 | – | inactive: -18.1%
COc1ccccc1CNC(=O)Cn1c(=O)oc2cc(Cl)ccc21 | inconclusive [inhibitor, single point] | –
CC(C)N1CCC2(CC1)Oc1ccc(Br)cc1C1CC(c3cccnc3)=NN12 (configuration not stated) | inconclusive [inhibitor, single point] | –
CCCCn1c(N)c(N(CCOC)C(=O)c2ccc(Cl)c(S(=O)(=O)N3CCCC3)c2)c(=O)[nH]c1=O | inconclusive [inhibitor, single point] | –
Cc1ccc(N(CC(=O)NC2CCCC2)C(=O)CCC(=O)Nc2nccs2)c(C)c1 | inconclusive [inhibitor, full curve] | –
Cc1c(C(=O)N(Cc2nccn2C)C(C)C)oc2c(F)cccc12 | inconclusive [inhibitor, partial curve, poor fit] | –
Cc1nc(Cl)cc(N/N=C/c2ccccc2)n1 | – | inactive: 30.2%
O=C(N/N=C/c1ccccc1O)C1(O)c2ccccc2-c2ccccc21 | inconclusive [inhibitor, single point] | –
COc1ccc(NC(C)C(=O)N/N=C/c2c(O)ccc3ccccc23)cc1 (configuration not stated) | inconclusive [inhibitor, partial curve, poor fit] | –
CC(=O)N1CCN(c2ccc(NC(=O)c3ccc([N+](=O)[O-])cc3)cc2)CC1 | – | inactive: 0%
CC1(C)CC(=O)C2=C(C1)N(c1ccccc1C#N)C(N)=C(C#N)C2c1cccs1 (configuration not stated) | inconclusive [inhibitor, partial curve] | –
C=CCn1c(N)cc(=O)nc1SC(C)C(=O)Nc1ccc(C(=O)OCC)cc1 (configuration not stated) | active: 4.15 µM | –
CCc1ccc(CN2CCCC(CNC(=O)c3cc(OC)cc(OC)c3)C2)cc1 (configuration not stated) | inconclusive [inhibitor, single point] | –
